Measured values from paper PMC10726135.
Some of the results follow. At the low end of the ranking the order means little. The protein was read in a cell extract, so binding may be indirect.

Each sequence was assayed against T1, HNF4alpha2 (COS-7 nuclear extract) (UniProt P41235) (assay: protein-binding microarray). Settings: COS-7 nuclear extract on double-stranded Agilent 4x180k PBM; binding buffer, salt, pH and temperature not given; high values mean tight binding; double strand, one strand shown; sequences stand for … in …GCCTAGGGAGATTAGAGTATCGGTCGA.
T1 sequence: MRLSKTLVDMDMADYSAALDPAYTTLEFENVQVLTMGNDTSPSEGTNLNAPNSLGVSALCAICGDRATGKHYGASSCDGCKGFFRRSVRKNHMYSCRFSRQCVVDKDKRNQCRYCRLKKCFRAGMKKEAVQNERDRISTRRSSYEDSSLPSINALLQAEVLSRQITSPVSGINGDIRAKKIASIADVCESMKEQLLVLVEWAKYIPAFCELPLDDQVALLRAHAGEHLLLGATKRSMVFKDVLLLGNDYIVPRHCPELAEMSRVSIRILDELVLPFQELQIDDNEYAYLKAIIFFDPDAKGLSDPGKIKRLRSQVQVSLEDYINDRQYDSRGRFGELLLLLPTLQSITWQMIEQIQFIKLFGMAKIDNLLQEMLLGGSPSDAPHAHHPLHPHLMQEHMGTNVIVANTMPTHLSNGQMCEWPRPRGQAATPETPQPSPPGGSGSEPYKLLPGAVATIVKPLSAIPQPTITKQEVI

Sequence	binding signal (log2 normalized intensity)
CCTTTAGAGGGCAAGGATCAGCCCCACACT	2.09
AATTCCAGGATCCAAGATCCAACTCTGAAG	-0.919
CCCCTCCCCCACACAGACAAAGACAGAGAG	4.09
GAAGATGCAACAGTGACCCAAATATGGTCC	-0.37
AGGTCTAAGTAAACTGTTCAAGACTTTCAG	-0.924
GCTAGCTGAGAGACTTTATCCGTATAACAA	0.102
AAAAATGATGCCTGACTCAAGAAAGGATCT	-0.989
GATCTGCAGGTAGGGGTGGGATGGGGAGCA	-1.11
GTGGGTTCTAGGTAATCACCCTCTCCACCC	1.56
TTTCAACATCCTCTCAGGTCAAAGTTTGCC	2.93
TTTTTTTTAACGGTCTGCCCTCTTGTCCTT	3.57
CTGCTGGGAGTTGTAGTTTTTTGGGCCCCT	1.36
CACTACTCCAGGGAGAAACCTGCCAGGTGG	-1.1
ACGTTTCTGTGGTCAGGGCCTTTCCAGCAA	-0.905
AAACAGATGTTGGTGGGAGGATTTCTTCAT	-1.15
CGGTTTTAGGACAACATGAGTAAACGAGCT	-1.21
AAAAAGCTCTGCCTACGCATGCATTCCAGT	-1.14
CCTCAGCCGGGAGAGGAGGCCCCCTGAGGC	1.15
TTCACTTCCCTATCCCGCTGCTTCCACCAG	-1.19
AGATGATGAGGCGGTTCATCCAACAGGTGA	-0.966
TGGGGATCAAAGCGTATGGGAGGGCTATTT	-1.15
ACTCCTACAATTGCTGGTCCCTTTCAAAAC	0.44
CCTCCTGCTGCAGCTCTGGGCCCCTCGGCC	-1.19
GTTTCTCAAGTGATCGAAGGTCAACTTATC	3.91
CAAAGTCCCCTGAGCTTGAGTCCATCCCAT	1.91

Sequence	binding signal (log2 normalized intensity)
GGTTAATGATTATGCCTCTGTGACCTATAA	2.4
AACTCAGGGTCTGGTTCCAAAGTCTGCAGA	2.77
TTCCATTGAAGCAGAGTGTCCCATATCACA	0.724
TCTTGGCTTCTCTTGGACCTCAATGTGCTC	1.99
TGTAGCTAAAATGTTAATGATTACTAGAGA	-0.00115
CCCACAAAGCCTAAAATATTCACTATCTGA	-1.16
AAGATTCCTGCTCTAATGTTCCTTATCAGA	-1.23
CGCCGAGCAGGCACCCCGGGAGCGCCGAGC	-1.09
TTCAGAGGCAGGGACTGAGGAATCTGGCTG	-1.15
ACCAGAGGCTGAAGTGAAGTTACAAAGGTC	5.21
GGGCGAGAGAGTTCTATGGGATGACCTTTG	6.25
AGAAAGAAGAGACAGCTGGGCCCTGCCTGA	-1.23
GGCATTCTTAACAAAACCTGTTTAGGATTA	0.363
CCAGGCTGAAGTGGCCCAAGATGGAGATGA	-1.18
TCAAAGGGCTTAATCTTTCCTGCCTGCCGG	-0.693
ATTGTGATGTGTGCGTTCATCTCACAGAGT	1.15
GATTGCAACCAAGTCCATCTGTATTGCCTC	-0.881
CTGTGAAGCACATCCTGTTCTAGCTCGGGG	0.174
TTTCTATGTGACCTTCACCCTGCTGTAAAT	3.71
GTCCTTAAGATCCAAAGGAGTGGTCCTGCT	-1.17
GATCTAATGCACCCAGAACCCCCAGGTCAC	4.94
ACCTGTTCAGCCAGATTCTCTCACTGCTCT	-1.07
TGGACCACGTGGCTAGATTGCAACCAAGTC	-0.749
GGAACTATTGGATTCCCCAATGCAGTACTA	0.426
TGCATTCCTGTCCACCCTGAAAGAGAGGAG	-1.03

Sequence	binding signal (log2 normalized intensity)
TCTCGGCCTTAAGAGTCAAAGGGCAAAGGA	2.94
TGGGATGGAACAAGGTCCCATGCACTGGCC	-1.02
GCAGCTTGGGAGCAATTTAGCAGCACCATC	-1.16
GGTCAAAGTACATCCCCTAAAACATCAAAT	2.98
ACTGAACATACAGGGTCTAGCAGTGCAGCG	-1.18
CAGCCAGAGGCCTTATCTGGCCGCCTAATC	-1.04
TAAGGATGCGGACTCCTCCCTCAGCCTGAA	-1.12
GAGTAAAGGTCACTCTTGCTATGCAAACAG	2.79
GCCGCGCGGCTTCAGAGGCCAGCAGTGCTT	-1.13
AGATTTGCAGCTCAAAGTGCTTTTCAATCT	-1.1
ATATCAGGTATTGCCCAGTATTGATGTGAG	1.54
CTCTAGGGTAGATAAGGATGGATCAAAGGA	-0.461
GGCTAGACTTTAACCCCCTTGTCTTCCTCA	3.56
AAAAGGATGCTAGGTTTGTGAGTCCAAAGG	4.16
CAGTCTCTTGAAATCCCAAGCAGTGATATT	-0.325
GACCCTTGGCCTCTACAGCTACTCCAGCTG	3.05
ACTATTATTAGAGTCCCTTTTTTAGACAAG	-0.0501
ACTCGTGGCATTTTTGCCCCTGCCCTAGAG	2.1
CGGGCGGTCGGAGTCCACGTCCTCCCCCAG	3.43
GAACCTCCCTCCCCATCTCCCCAGACACTC	5.29
TAATAACACTCCCATCTGCCATCAGTATCC	-1
AGCGCTTATCTGGAAACTATTCCTTTGTTT	-1.14
GCAAACAGAGATAGTTTGACTTTCTCTCTT	-1.1
GGGGGAAGTGTGGTCAAGGGTCAGTTTCTG	3.9
CCTCTGTCTCTCAGGCACAGCTCGACCTTT	5.94

Sequence	binding signal (log2 normalized intensity)
TGAAGACCTGTACAGGGACTGTGTCAACAA	-1.08
CGAGTTCCCTCGATTATTTCAGCCAGGGCT	-1.11
GCCCTTTGTCCTATGACTCTCTCAACACTG	2.98
TGGACTCCTGTTTGAACAAACCAGCTTTGA	-1.15
AGAAGTTGGACTTTGTACATTCCAAATACG	6.88
TTATGGCTGGTTTGGTCTTTTATCTAGACC	1.5
CTTTAGGAGAAGGAAAAAAATAGGAGACTG	-1.05
CGCCCTCAGTGTTTTCACTGCTGGGTTTCT	0.938
CGCCGGAGAATTAAACTGCCGCGCCACTGC	-1.19
TTTTGCTCTGATCCTAGTCTTTGCCCCACT	3.81
CCCCTATTAACCAAAGCTACACAGATAAGC	-1.26
GTTCGGGGGACGGAGAGCAGGGCGTGGACT	0.936
ACAAGTTATTACCGTGATGTTCGTTTGGAT	1.38
TATGGCCGGCCCCTGGAATGCTGAGGGGGG	-1.17
AAGACATTCCAAGAAGAGCCAATAGTACAC	-0.651
ATTACATAGGAGGCTGCCTCTCTGTGCTGG	-1.14
GAAAATGTCGTTTTCCCGGTTTGTTCCATG	1.81
GGTTTTACCCTGGGAATGGAGAGAGAGAGA	-0.697
TAGCTGCTAGAGAAAAAGAAAAGCCTTGTG	-1.08
AAATGTACTGGATATAGCCAGATGTCCTTT	1.79
ATTGGCTTGGCTGTGTCCCTTGACCAAAGG	2.07
AATACCTGCCGCGCGGGGCGCCTCCCGGAG	-1.14
TGGGAGACATTCCTTCAGCGTGAACTTTGA	6.72
CAAATGACAGAAGCAGGACTTAAACACCAG	-1.17
GGCTTGGCAGTCTGGTGCCAAGGAGCCTCT	-0.449

Sequence	binding signal (log2 normalized intensity)
TTATCTCCCCAGCTTACAATTCCAATGAGA	0.806
GCCACACTGGTTCCTGCACCCGGGCAGCCT	-1.13
CTTTCCGTACTTTTCATCTGATCAGTGCCC	2.37
CCAGCGAGGTTATTTCACCCCAGCAAACAG	0.674
TCAGAGGCTCACAGAGAGGCTTCTGGCCAG	-0.999
GACTTTCAACAGAGGGCCTCTAGCCCAATA	-1.18
AGCGGGGTTTGAATCCCGGGAATCCTCAGC	-1.17
TCATTGCAATTACTCAATAACCACATGAAT	-1.27
GCACCGTGTGCTTTGTAGCACTTTGGACCT	6.42
CCTTGACACATCTGATTAGAGGCTCAGGTA	-0.794
CCCTCGGGCCGGGAAACGCCCTCGGCGCGC	1.16
AGCTTGTCCAGAGTAGGCTTGCAAGACTGC	-0.856
ACCTTGTGCAGTATCCCAGGGACTTACTCA	-0.811
CGGGAGCATAGCAGCGAGGACAACCAGAGG	-1.05
ATGCCTTTCATCTTTGAGAAAACTCCAAAG	-0.956
CCCAGCGGTTCCGGGCGGCAGCACAAGGCG	-0.917
ACCCAGGGGACGGAAGTTGCAGTGAGCTAA	-1.07
AGAGGGTATACTATTTGCTAATGTCCTTTG	2.41
ATACTTTGACTGAGACTGCCTCAAACAGCT	-1.19
AGGGAGATGGATATATGTACAGCTGTGTAT	1.19
AGCAAGATGACTTTGGTCTAGACACAGACT	-0.984
CAAATTGCTGACTTTCTGTGTCTTGGCAGT	1.59
CACAGAGGACGTCAGGCAGAGAGGGACTCT	-1.12
CATGGCAGACAGCAGTCTGAGTAGGAAAGA	-0.708
TGTTCACAGTGACGTTCTGCCCCTTATCTT	3.42

Sequence	binding signal (log2 normalized intensity)
ACCCCCGCCCCCATTATCTCCTTAGGTACT	3.23
CAGGGTAATGAGTGCTATCCCTGGAGCCTT	-0.509
AAGCAGCCCAACAGCATTAAGCTGAGGCAG	-1.14
GATGTTTATACAGCCTTGGAAGACACAGAT	-0.0495
GTCCAGTCACAGCAAAAGTAGCCTGGTCAG	-0.709
CTGTGTCACGTACCGGCTAGACAAACAGCT	-1.13
TCCCCCCTCCTCATTGAGAGTTTTAGGCTG	2.03
AGACAACATCGAAGACTTCATGATAACACT	-1.15
GCACCAGCCCATTAATCAAGGCTGCCTGGC	-1.25
CAGGAGGACTGGATCAATGGATCCACTCAG	-1.1
GGGCAGCCCTGTTTAGGAGGAAATAGAGAG	-0.965
ACCCAAGATCAAAGAGAAAGTAAGTGCACA	0.2
CTTATCACTTGGTGGACATGGTTCACTGAT	1.82
AAGGTCCCCACCACAAAGGCCAGAGAAAGA	1.73
CCTGGAAAAGTCTCAGGGGCCTTGCAATGA	-1.22
TGTCAATGACCCTAATGGGGTACTTGAACC	2.72
CTCCCTGGGCAGTGCAGTATGCGCTCTGGG	-1.21
TCAAGAGAATTACAAACAGCCCTGACATTC	-1.2
AATTCCCAAGGGTATGTTTGTGATATTGTG	1.76
GGGGCATCGGTCTTTACACATCTGTTAGGA	1.03
